In assay [1] the target is BD-ComM (ComM fused to the Gal4 DNA binding domain) (Streptococcus pneumoniae). Nature of the assay: two-hybrid; Y2H matrices: Gal4 AD (pGAD-C1, PJ69-4α) and BD (pGBDU-C1, PJ69-4a) fusions, diploids by mating, growth on selective plates lacking leucine, uracil and adenine (-LUA); empty vectors as controls for auto-activation.
Assay [2] deals with T1, DprA-SmBit (Streptococcus pneumoniae), Q8DPI7.
T1 chain: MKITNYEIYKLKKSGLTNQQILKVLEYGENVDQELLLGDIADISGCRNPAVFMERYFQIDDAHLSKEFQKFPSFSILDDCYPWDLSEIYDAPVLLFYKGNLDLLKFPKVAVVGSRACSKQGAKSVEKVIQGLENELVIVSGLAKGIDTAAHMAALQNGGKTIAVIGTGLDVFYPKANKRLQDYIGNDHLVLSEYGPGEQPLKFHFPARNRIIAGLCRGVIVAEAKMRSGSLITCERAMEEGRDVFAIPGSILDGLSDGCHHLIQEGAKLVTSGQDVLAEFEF
Description: split reporter; split-luciferase complementation (LgBit/SmBit) in living S. pneumoniae cells 15 min after competence induction with CSP1 at 37 °C; NanoGlo substrate, luminescence in a plate reader. Particulars: remark: other sources report otherwise.

Assay [3] addresses BD-ComM (ComM fused to the Gal4 DNA binding domain) (Streptococcus pneumoniae). Nature of the assay: two-hybrid; genome-wide screen: BD-ComM bait (pGBDU-C1, PJ69-4a) mated with a genomic S. pneumoniae library fused to the Gal4 AD (pGAD-C1, PJ69-4α); selection on medium lacking leucine, uracil and either histidine or adenine, 7–14 days.
Assay [4] has as its target FtsW, full length, Gal4 AD or BD fusion (Streptococcus pneumoniae). Description: two-hybrid; Y2H matrices: Gal4 AD (pGAD-C1, PJ69-4α) and BD (pGBDU-C1, PJ69-4a) fusions, diploids by mating, growth on selective plates lacking leucine, uracil and adenine (-LUA); empty vectors as controls for auto-activation.

Results are given in words; binding and its absence hold for the method and conditions named. For part of these data: Binding seen in cells or lysates may run through a third protein. Some entries that bind do so weakly or less than the wild type. For part of these data: Sequences can lack the tags named with a protein.

Consider “FtsW, full length, Gal4 AD or BD fusion (from UniProt A0ACD7PRK7 1-409)”, for which, in assay [1], the binding entry is on record as “no binding”.

B1: DprA-SmBit, Q8DPI7 1-282 (protein)
chain: MKITNYEIYKLKKSGLTNQQILKVLEYGENVDQELLLGDIADISGCRNPAVFMERYFQIDDAHLSKEFQKFPSFSILDDCYPWDLSEIYDAPVLLFYKGNLDLLKFPKVAVVGSRACSKQGAKSVEKVIQGLENELVIVSGLAKGIDTAAHMAALQNGGKTIAVIGTGLDVFYPKANKRLQDYIGNDHLVLSEYGPGEQPLKFHFPARNRIIAGLCRGVIVAEAKMRSGSLITCERAMEEGRDVFAIPGSILDGLSDGCHHLIQEGAKLVTSGQDVLAEFEF
Consider B1, for which the binding result in assay [2] is given as “binds”.

B2: DivIB fragment aa 14-82 (prey clone of the genome-wide Y2H screen) (domain or fragment, UniProt Q8DQM0 14-82)
chain: EELKELSEWQKRNQEYLKKKAEEEVALAEEKEKERQARMGEESEKSEDKQDQESETDQEDSESAKEESE
With B2, the binding entry in assay [3] is given as “binds”.

B3: DivIB, full length, Gal4 AD or BD fusion (protein, UniProt Q8DQM0 1-396)
chain: MSKDKKNEDKETLEELKELSEWQKRNQEYLKKKAEEEVALAEEKEKERQARMGEESEKSEDKQDQESETDQEDSESAKEESEEKVASSEADKEKEEPESKEKEEQDKKLAKKATKEKPAKAKIPGIHILRAFTILFPSLLLLIVSAYLLSPYATMKDIRVEGTVQTTADDIRQASGIQDSDYTINLLLDKAKYEKQIKSNYWVESAQLVYQFPTKFTIKVKEYDIVAYYISGENHYPILSSGQLETSSVSLNSLPETYLSVLFNDSEQIKVFVSELAQISPELKAAIQKVELAPSKVTSDLIRLTMNDSDEVLVPLSEMSKKLPYYSKIKPQLSEPSVVDMEAGIYSYTVADKLIMEAEEKAKQEAKEAEKKQEEEQKKQEEESNRNQTNQRSSRR
Regarding B3, the binding result in assay [1] and in assay [4] was “binds” throughout.

B4: PBP2x, full length, Gal4 AD or BD fusion (protein, UniProt P59676 1-750)
chain: MKWTKRVIRYATKNRKSPAENRRRVGKSLSLLSVFVFAIFLVNFAVIIGTGTRFGTDLAKEAKKVHQTTRTVPAKRGTIYDRNGVPIAEDATSYNVYAVIDENYKSATGKILYVEKTQFNKVAEVFHKYLDMEESYVREQLSQPNLKQVSFGAKGNGITYANMMSIKKELEAAEVKGIDFTTSPNRSYPNGQFASSFIGLAQLHENEDGSKSLLGTSGMESSLNSILAGTDGIITYEKDRLGNIVPGTEQVSQRTMDGKDVYTTISSPLQSFMETQMDAFQEKVKGKYMTATLVSAKTGEILATTQRPTFDADTKEGITEDFVWRDILYQSNYEPGSTMKVMMLAAAIDNNTFPGGEVFNSSELKIADATIRDWDVNEGLTGGRMMTFSQGFAHSSNVGMTLLEQKMGDATWLDYLNRFKFGVPTRFGLTDEYAGQLPADNIVNIAQSSFGQGISVTQTQMIRAFTAIANDGVMLEPKFISAIYDPNDQTARKSQKEIVGNPVSKDAASLTRTNMVLVGTDPVYGTMYNHSTGKPTVTVPGQNVALKSGTAQIADEKNGGYLVGLTDYIFSAVSMSPAENPDFILYVTVQQPEHYSGIQLGEFANPILERASAMKDSLNLQTTAKALEQVSQQSPYPMPSVKDISPGDLAEELRRNLVQPIVVGTGTKIKNSSAEEGKNLAPNQQVLILSDKAEEVPDMYGWTKETAETLAKWLNIELEFQGSGSTVQKQDVRANTAIKDIKKITLTLGD
Turning to B4, the binding entry in assay [1] is recorded as “no binding”.

These data come from publication PMC12214887.
